# The other results are listed elsewhere or left out.
# B1: Gal 8 (Mus musculus), Q9JL15 (protein)
# chain: MGGSHHHHHHGMASMLSLNNLQNIIYNPIIPYVGTITEQLKPGSLIVIRGHVPKDSERFQVDFQLGNSLKPRADVAFHFNPHFKRSSCIVCNTLTQEKWGWEEITYDMPFRKEKSFEIVFMVLKNKFQVAVNGRHVLLYAHRISPEQIDTVGIYGKVNIHSIGFRFSSASALPHTLGDLQSMETSALGLTQINRENIQKPGKLQLSLPFEARLNASMGPGRTVVIKGEVNTNARSFNVDLVAGKTRDIALHLNPHLNVKAFVRNSFLQDAWGEEERNITCFPFSSGMYFEMIIYCDVREFKVAINGVHSLEYKHRFKDLSSIDTLSVDGDIRLLDVRSW
# Columns and labels:
# Assay in all cases: glycan array binding signal (z-score within array); higher = stronger binding
# Details in all cases: glycan notation: IUPAC condensed, linker removed; mutation: R82H, R255H
# [1] = target: Neu5Ac(a2-3)Gal
# Procedure, shortened: (§1)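 From the Consortium for Functional Glycomics database, 3228 arrays were curated, keeping only those whose protein sequence was available. Binding is given as a within-array Z-score averaged across arrays sharing a protein sequence and across linkers. Negative Z-scores can be read as non-binding.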
# [2] = target: Neu5Ac(a2-3)Gal(b1-3)GalNAc
# Procedure, shortened: as §1
# [3] = target: Neu5Ac(a2-3)Gal(b1-3)GalNAc(b1-3)Gal(a1-4)Gal(b1-4)Glc
# Procedure, shortened: as §1
# [4] = target: Neu5Ac(a2-3)Gal(b1-3)GalNAc(b1-4)Gal(b1-4)Glc
# Procedure, shortened: as §1
# [5] = target: Neu5Ac(a2-3)Gal(b1-3)GalNAc(b1-4)[Neu5Ac(a2-3)]Gal(b1-4)Glc
# Procedure, shortened: as §1
# [6] = target: Neu5Ac(a2-3)Gal(b1-3)GalNAc(b1-4)[Neu5Ac(a2-8)Neu5Ac(a2-3)]Gal(b1-4)Glc
# Procedure, shortened: as §1
# [7] = target: Neu5Ac(a2-3)Gal(b1-3)GalNAc6S
# Procedure, shortened: as §1
# [8] = target: Neu5Ac(a2-3)Gal(b1-3)GlcNAc
# Procedure, shortened: as §1
# [9] = target: Neu5Ac(a2-3)Gal(b1-3)GlcNAc(b1-2)Man
# Procedure, shortened: as §1
# [10] = target: Neu5Ac(a2-3)Gal(b1-3)GlcNAc(b1-2)Man(a1-3)[GlcNAc(b1-4)][Neu5Ac(a2-3)Gal(b1-3)GlcNAc(b1-2)Man(a1-6)]Man(b1-4)GlcNAc(b1-4)GlcNAc
# Procedure, shortened: as §1
# [11] = target: Neu5Ac(a2-3)Gal(b1-3)GlcNAc(b1-2)Man(a1-3)[Neu5Ac(a2-3)Gal(b1-3)GlcNAc(b1-2)Man(a1-6)]Man(b1-4)GlcNAc(b1-4)GlcNAc
# Procedure, shortened: as §1
# [12] = target: Neu5Ac(a2-3)Gal(b1-3)GlcNAc(b1-2)[Neu5Ac(a2-3)Gal(b1-3)GlcNAc(b1-4)]Man(a1-6)[Neu5Ac(a2-3)Gal(b1-3)GlcNAc(b1-2)Man(a1-3)]Man(b1-4)GlcNAc(b1-4)GlcNAc
# Procedure, shortened: as §1
# [13] = target: Neu5Ac(a2-3)Gal(b1-3)GlcNAc(b1-3)Gal(b1-3)GlcNAc
# Procedure, shortened: as §1
# [14] = target: Neu5Ac(a2-3)Gal(b1-3)GlcNAc(b1-3)Gal(b1-4)GlcNAc
# Procedure, shortened: as §1
# [15] = target: Neu5Ac(a2-3)Gal(b1-3)GlcNAc(b1-3)GalNAc
# Procedure, shortened: as §1
# [16] = target: Neu5Ac(a2-3)Gal(b1-3)GlcNAc(b1-6)GalNAc
# Procedure, shortened: as §1
# [17] = target: Neu5Ac(a2-3)Gal(b1-3)GlcNAc6S
# Procedure, shortened: as §1
# [18] = target: Neu5Ac(a2-3)Gal(b1-3)[Fuc(a1-4)]GlcNAc
# Procedure, shortened: as §1
# [19] = target: Neu5Ac(a2-3)Gal(b1-3)[Fuc(a1-4)]GlcNAc(b1-3)Gal(b1-3)[Fuc(a1-4)]GlcNAc
# Procedure, shortened: as §1
# [20] = target: Neu5Ac(a2-3)Gal(b1-3)[Fuc(a1-4)]GlcNAc(b1-3)Gal(b1-4)[Fuc(a1-3)]GlcNAc
# Procedure, shortened: as §1
# [21] = target: Neu5Ac(a2-3)Gal(b1-3)[GlcNAc(b1-6)]GalNAc
# Procedure, shortened: as §1
# [22] = target: Neu5Ac(a2-3)Gal(b1-3)[Neu5Ac(a2-6)]GalNAc
# Procedure, shortened: as §1
# [23] = target: Neu5Ac(a2-3)Gal(b1-3)[Neu5Ac(a2-6)]GlcNAc(b1-3)[Fuc(a1-3)[Gal(b1-4)]GlcNAc(b1-6)]Gal(b1-4)Glc
# Procedure, shortened: as §1
# [24] = target: Neu5Ac(a2-3)Gal(b1-3)]Neu5Ac(a2-3)Gal(b1-4)]GlcNAc
# Procedure, shortened: as §1
# [25] = target: Neu5Ac(a2-3)Gal(b1-4)Glc
# Procedure, shortened: as §1
# [26] = target: Neu5Ac(a2-3)Gal(b1-4)GlcNAc
# Procedure, shortened: as §1
# [27] = target: Neu5Ac(a2-3)Gal(b1-4)GlcNAc(b1-2)Man
# Procedure, shortened: as §1
# [28] = target: Neu5Ac(a2-3)Gal(b1-4)GlcNAc(b1-2)Man(a1-3)[GlcNAc(b1-4)][Neu5Ac(a2-3)Gal(b1-4)GlcNAc(b1-2)Man(a1-6)]Man(b1-4)GlcNAc(b1-4)GlcNAc
# Procedure, shortened: as §1
# [29] = target: Neu5Ac(a2-3)Gal(b1-4)GlcNAc(b1-2)Man(a1-3)[Neu5Ac(a2-3)Gal(b1-4)GlcNAc(b1-2)Man(a1-6)]Man(b1-4)GlcNAc(b1-4)GlcNAc
# Procedure, shortened: as §1
# [30] = target: Neu5Ac(a2-3)Gal(b1-4)GlcNAc(b1-2)Man(a1-3)[Neu5Ac(a2-3)Gal(b1-4)GlcNAc(b1-2)Man(a1-6)]Man(b1-4)GlcNAc(b1-4)[Fuc(a1-6)]GlcNAc
# Procedure, shortened: as §1
# [31] = target: Neu5Ac(a2-3)Gal(b1-4)GlcNAc(b1-2)Man(a1-3)[Neu5Ac(a2-6)Gal(b1-4)GlcNAc(b1-2)Man(a1-6)]Man(b1-4)GlcNAc(b1-4)GlcNAc
# Procedure, shortened: as §1
# [32] = target: Neu5Ac(a2-3)Gal(b1-4)GlcNAc(b1-2)[Neu5Ac(a2-3)Gal(b1-4)GlcNAc(b1-4)]Man(a1-3)[GlcNAc(b1-4)][Neu5Ac(a2-3)Gal(b1-4)GlcNAc(b1-2)[Neu5Ac(a2-3)Gal(b1-4)GlcNAc(b1-6)]Man(a1-6)]Man(b1-4)GlcNAc(b1-4)GlcNAc
# Procedure, shortened: as §1
# [33] = target: Neu5Ac(a2-3)Gal(b1-4)GlcNAc(b1-2)[Neu5Ac(a2-3)Gal(b1-4)GlcNAc(b1-4)]Man(a1-3)[GlcNAc(b1-4)][Neu5Ac(a2-3)Gal(b1-4)GlcNAc(b1-4)Man(a1-6)]Man(b1-4)GlcNAc(b1-4)GlcNAc
# Procedure, shortened: as §1
# [34] = target: Neu5Ac(a2-3)Gal(b1-4)GlcNAc(b1-2)[Neu5Ac(a2-3)Gal(b1-4)GlcNAc(b1-6)]Man(a1-6)[Neu5Ac(a2-3)Gal(b1-4)GlcNAc(b1-2)Man(a1-3)][GlcNAc(b1-4)]Man(b1-4)GlcNAc(b1-4)GlcNAc
# Procedure, shortened: as §1
# [35] = target: Neu5Ac(a2-3)Gal(b1-4)GlcNAc(b1-3)Gal
# Procedure, shortened: as §1
# [36] = target: Neu5Ac(a2-3)Gal(b1-4)GlcNAc(b1-3)Gal(b1-3)GlcNAc
# Procedure, shortened: as §1
# [37] = target: Neu5Ac(a2-3)Gal(b1-4)GlcNAc(b1-3)Gal(b1-4)GlcNAc
# Procedure, shortened: as §1
binder,measurement,setting,value
B1,glycan array binding signal (z-score),[1],-0.259
same,glycan array binding signal (z-score),[2],-0.119
same,glycan array binding signal (z-score),[3],-0.228
same,glycan array binding signal (z-score),[4],-0.192
same,glycan array binding signal (z-score),[5],-0.226
same,glycan array binding signal (z-score),[6],-0.243
same,glycan array binding signal (z-score),[7],-0.211
same,glycan array binding signal (z-score),[8],-0.217
same,glycan array binding signal (z-score),[9],-0.251
same,glycan array binding signal (z-score),[10],-0.236
same,glycan array binding signal (z-score),[11],0.022
same,glycan array binding signal (z-score),[12],-0.206
same,glycan array binding signal (z-score),[13],-0.249
same,glycan array binding signal (z-score),[14],-0.256
same,glycan array binding signal (z-score),[15],-0.205
same,glycan array binding signal (z-score),[16],-0.225
same,glycan array binding signal (z-score),[17],-0.181
same,glycan array binding signal (z-score),[18],-0.277
same,glycan array binding signal (z-score),[19],-0.066
same,glycan array binding signal (z-score),[20],-0.217
same,glycan array binding signal (z-score),[21],0.39
same,glycan array binding signal (z-score),[22],-0.233
same,glycan array binding signal (z-score),[23],0.129
same,glycan array binding signal (z-score),[24],-0.269
same,glycan array binding signal (z-score),[25],0.157
same,glycan array binding signal (z-score),[26],-0.29
same,glycan array binding signal (z-score),[27],1.22
same,glycan array binding signal (z-score),[28],-0.277
same,glycan array binding signal (z-score),[29],-0.27
same,glycan array binding signal (z-score),[30],-0.265
same,glycan array binding signal (z-score),[31],-0.286
same,glycan array binding signal (z-score),[32],-0.27
same,glycan array binding signal (z-score),[33],-0.278
same,glycan array binding signal (z-score),[34],-0.278
same,glycan array binding signal (z-score),[35],-0.283
same,glycan array binding signal (z-score),[36],-0.275
same,glycan array binding signal (z-score),[37],-0.292
